Source: the supplement of paper PMC3334620
The full ranking holds about 33,000 sequences; the median of “E-score (-0.5 to 0.5)” is about -0.041, and the highest 2% start at about 0.37. This is one part of the list.

Biological target: T1, Ecm22 (UniProt Q05958)
T1 sequence: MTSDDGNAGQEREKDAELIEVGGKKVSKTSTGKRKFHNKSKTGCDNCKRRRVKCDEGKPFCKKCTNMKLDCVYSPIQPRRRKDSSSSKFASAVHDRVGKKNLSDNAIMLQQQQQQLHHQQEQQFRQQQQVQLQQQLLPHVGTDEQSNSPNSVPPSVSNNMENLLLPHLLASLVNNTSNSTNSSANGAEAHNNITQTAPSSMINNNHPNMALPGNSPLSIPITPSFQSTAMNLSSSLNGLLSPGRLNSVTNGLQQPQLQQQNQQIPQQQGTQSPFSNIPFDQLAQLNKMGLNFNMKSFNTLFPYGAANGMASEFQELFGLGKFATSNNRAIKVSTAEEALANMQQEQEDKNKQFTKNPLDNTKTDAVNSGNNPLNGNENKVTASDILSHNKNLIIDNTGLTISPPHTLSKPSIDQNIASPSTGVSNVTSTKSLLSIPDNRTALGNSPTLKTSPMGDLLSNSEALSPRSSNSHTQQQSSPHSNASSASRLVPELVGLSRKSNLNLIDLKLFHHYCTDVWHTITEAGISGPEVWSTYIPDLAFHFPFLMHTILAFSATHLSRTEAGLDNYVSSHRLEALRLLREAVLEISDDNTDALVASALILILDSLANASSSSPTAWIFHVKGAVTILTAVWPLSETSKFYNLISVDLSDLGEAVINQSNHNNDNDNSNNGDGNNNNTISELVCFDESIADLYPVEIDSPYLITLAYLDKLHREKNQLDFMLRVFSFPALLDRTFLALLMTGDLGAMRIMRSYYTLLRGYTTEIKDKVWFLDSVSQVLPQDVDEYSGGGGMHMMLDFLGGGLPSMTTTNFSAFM
Experiment: PBM E-score (8-mer binding enrichment) (E-score (-0.5 to 0.5)); higher = stronger / more preferred TF binding; most listed sequences are background and not binding sites
Conditions: protein concentration: 200 nM; construct: GST-full length
Procedure: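 Universal 'all 10-mer' protein binding microarrays (Agilent AMADID 015681) probed with GST-tagged S. cerevisiae TFs (full-length or DBD) made by in vitro transcription/translation (PURExpress), about 100-200 nM. Bound TF was detected with fluorescent anti-GST. Each ungapped 8-mer (which stands for itself and its reverse complement) is scored by the PBM enrichment score (E-score), a modified Wilcoxon-Mann-Whitney statistic from -0.5 to +0.5, computed with the Universal PBM Analysis Suite. Scale: above 0.35 generally sequence-specific binding.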

Sequence	PBM E-score
AAGCTAGT	-0.186
CGTCAAAC	0.148
AACCGCTA	-0.0392
ATCAATAA	0.0621
CGCTGCGC	-0.00429
AAGTCGAA	-0.148
TAGGCGAA	0.108
AGGACCTA	-0.0144
CAGGGCGG	-0.072
AACAACGA	0.283
AGGTCACA	-0.288
GCGGTCAC	-0.122
AATGACAA	-0.0983
AACTTCTA	-0.0506
ACAGAGAG	-0.198
AGCGTCGG	0.154
TAATACCA	0.0168
CCAGTTTA	-0.038
CGCAGGCG	-0.169
ACGAGACC	0.33
CCTCGTAA	0.446
AGCGATAG	0.0441
CCATGTTA	-0.172
AGGTGTGA	-0.28
AGAGACGG	-0.0903

Sequence	PBM E-score
ATAGCAAC	-0.09
AAGAGGGA	0.0565
TCGCCGCA	-0.0806
CGACGCAA	0.185
ACTAGTGG	-0.231
AGTCTGTC	-0.163
ATACAGAC	0.143
ATAGAGAC	-0.0963
GTAGATCA	0.0453
GAGATAAC	-0.0197
GTAAGTAA	0.0369
CGAGTAGC	0.192
AAAAGATC	0.0363
TGAAGTAA	-0.143
GAGCTCCC	-0.0491
ACTTAACC	-0.163
AGCGCCAC	-0.0549
ATCAGGAG	0.0111
CTTATTCC	-0.263
AGCTTCAC	0.0436
CGGCGACC	0.0427
TACCTGGA	0.0274
ACATGCGC	-0.0219
AAGGGGAC	-0.152
TGCTATAA	-0.257

Sequence	PBM E-score
AATAAATT	0.0545
ACGCGCTC	0.141
CACCATGG	-0.173
GTAATCTA	0.117
ATCTACAA	0.0503
CCCTGTCG	0.175
ATCAGGTA	-0.131
AGCCTAAA	-0.0783
AAGTGGAC	-0.156
ATAGTGAG	-0.181
CACATGCA	-0.149
AAGCGCGT	0.0575
ACATTCGC	-0.0728
AAGAGTAG	-0.211
ACCAACGT	0.0482
TGAGGAAA	-0.0306
CGTGAAGC	-0.113
AAGTGGGT	-0.0664
AAGGACGC	-0.128
ATGAAAAA	-0.158
ACCGGTCT	-0.439
AGTTTCAG	-0.132
ACGGCTAC	0.183
CAGTTAAG	-0.148
CCGGACCC	0.0734

Sequence	PBM E-score
CTGTGAAC	0.0491
GGCCCCTA	-0.346
CTTTAGCC	-0.154
ATAGTGGA	-0.0057
CATCGTGA	0.108
CGTTCGTC	0.314
GACAACGA	0.219
GAGATGCC	0.0691
ATCAATAC	0.137
TAGGTCGA	0.00837
CCCTTATC	-0.302
ATACAACA	-0.0305
GTAGGCTA	-0.0223
AGAGCTCC	-0.289
ACAAACGG	0.226
ATCGGCAG	-0.124
ACTCACTA	-0.115
CCGGACAG	0.0392
CATAGAGA	-0.225
CAATTACA	-0.052
ACCACCGC	0.019
AGACGCTA	-0.209
AATGGCAA	-0.133
CCCGGAAG	-0.269
CCCGCCTC	-0.0945

Sequence	PBM E-score
GGTAGGAC	-0.234
AGGTCACG	-0.237
ATAGCGGC	0.109
ATATTAGC	0.13
AATGACAC	-0.156
CCTAGCAC	-0.0753
CTCGACGC	0.0768
TAAGATTA	-0.115
CCAGATGG	-0.168
CCATCTAC	-0.166
ACTATAGC	-0.0838
ACGTTCAC	0.105
CTGTACAC	0.0364
CGGAAATC	0.111
AGAACTAC	0.0445
CACCGCTG	-0.099
GAAGCCAA	-0.136
CGCAAAGA	0.0474
ATTAATGC	0.0497
ACCCGCTC	0.00869
GAATGCAC	0.106
CACAAGAG	-0.0992
GCTGCTCA	-0.13
ATGGATCG	0.223
ATAGGGAA	-0.121

Sequence	PBM E-score
GGCACTCA	-0.276
CAGCATGC	-0.227
ATGGCTCG	0.165
CGACAAGA	0.152
ATCCTTCC	-0.319
TGCGCGCA	0.0382
CTCACTCA	-0.225
ATGCGGCG	0.102
AATCCAGA	-0.187
GTCCTGAA	-0.0489
CTGGACAC	-0.132
AACATTCT	-0.0433
AAACTGTT	-0.124
AACTCGTG	0.228
CAGAAGAA	-0.132
ACTAAAAT	0.132
TCGGACGA	0.0599
AGCAACTG	-0.0733
CTATTCCA	-0.167
AATCGCCC	-0.0815
AGGATCAT	-0.00451
GCGGGGTA	-0.0396
AGCCCGGG	-0.299
GCAATCAA	-0.144
CCGCGACA	0.0746

Sequence	PBM E-score
ATTACCCC	-0.141
TACAATGA	-0.144
GGTGAGGA	0.0597
CTAAATAA	0.0723
CGGTCATA	0.0754
AAGCACGT	-0.0246
TAGCAAGA	-0.121
GCTACTAC	0.0554
ATTTGGAC	-0.146
ATTGATTG	-0.0716
GCTTTAAC	0.156
ATAAATTG	0.117
CGTGAACG	0.229
CCATTCCC	-0.0912
ACGCTATG	-0.122
CTAGGATA	-0.088
CGTTCACC	0.298
AAAACGTA	0.164
GACTTTGC	-0.0126
AAAACATA	0.139
AGTATCTC	0.0689
AATACGTG	0.15
GACGGATC	-0.00709
GCCAGCTA	-0.2
GGCCGGAC	0.0155

Sequence	PBM E-score
CGGGTGAA	0.0777
CCCGCGCG	0.0573
GAGAGAAA	-0.0003
GCTATTCA	-0.0134
GGACCCAA	-0.155
TAACCGTA	0.375
ATCCAGGG	-0.0947
CGTCGCCA	-0.0557
CTGCCTAC	-0.0406
AGTCCGGG	-0.107
ACACGTTC	-0.0311
TGACATCA	-0.171
AGCCATTA	0.18
GTCAGCAA	-0.0754
ACCATCGA	0.00274
AAGAAACC	-0.133
TAATTAGA	-0.143
AATGCCGG	-0.0755
CATAGGCC	-0.0527
GTTGCAAC	0.236
CTACATAA	-0.143
CTAAAGTC	-0.162
TATAACCA	0.127
ACTATTAC	0.212
CCTGGAGC	-0.155

Sequence	PBM E-score
ACATTTGA	-0.158
TAAGCGAA	0.335
AATCTTGC	-0.0116
ACGGCCGG	0.151
CCAACCTC	-0.0513
GGCTCAAA	-0.19
ACTCGCCC	-0.269
AAGAGCTA	-0.0558
CTTGGCGA	-0.154
CAAGGATG	-0.157
AGACCAAC	-0.11
GCGATCAC	-0.0638
AAAAATAT	0.0527
GAAGGCTA	-0.115
CTATGAAC	0.105
GCTGAAAA	-0.0964
AACACCAC	-0.0951
AGTAGTCA	-0.24
CGGATCCA	0.0958
AGGTTTAC	0.00715
AGAGGACT	-0.27
GGGTATCA	-0.196
ATCCGATA	0.173
AAGTACAA	0.0494
CTCCCCTC	0.0164

Sequence	PBM E-score
CACGACAA	0.09
CTCTTTTC	-0.0338
CTGAGAAA	-0.13
AACACGAA	0.247
GACGTGTA	-0.129
AAGATGCG	0.169
CTCCCGGA	0.0049
ATGCGCGA	0.175
TCGATCCA	-0.0339
ATCACAAG	-0.0512
ACTGGAGA	-0.194
ATCAGCAA	-0.172
AAAGACCC	-0.157
ATGCTTGA	-0.162
AATGCCAA	-0.224
ACCTGCCC	-0.276
AAACAAGC	0.0423
AACGGTCC	0.124
GCTATACC	-0.073
AGCACCTG	-0.322
CGCTCACC	0.112
GGCCCGAC	-0.125
AACTCTTA	0.0548
ATGTATTA	0.0531
CGCACCGC	0.111

Sequence	PBM E-score
ATCGAGGA	0.115
GACATCGA	-0.035
GTTACGGA	0.233
ACACTCAA	0.184
TACTCGCA	0.249
AAGCTACC	-0.165
AAGGTGCG	0.147
GCTGTACC	-0.175
CCGGGACA	-0.057
AGGATTAG	-0.0677
ATTTGTTC	0.207
ACTCTCTG	-0.0894
CGCACGCC	0.0673
GGTCGTAA	0.417
GAGTGTCC	-0.0357
AGGCATAC	-0.0177
ACATTCAA	-0.116
AATAACCT	-0.148
AATGGCCC	-0.311
CGGAATGC	-0.154
ACGTCACG	-0.12
CCATCATA	-0.352
GAGGTGAC	-0.047
AGCTTACC	-0.139
AAAGCAGT	-0.132

Sequence	PBM E-score
GAGACAAC	0.129
AGGTTAAT	-0.0751
ACTCAGAA	-0.0905
CAGACCTG	-0.0891
CTTATCTC	0.0813
AACGAGGG	0.439
CCCATGAC	-0.0348
AAGGTATT	-0.07
ACCGGATA	0.00383
AAAACGTT	0.0503
CAATAGTC	-0.185
GTGGACTA	-0.152
GGCAGGCA	-0.31
CCTCAAGC	-0.229
AAGCGGTG	-0.0233
CAAATAAA	0.0329
GTGCGGGA	0.0471
ACGCGCCT	0.189
AGTGCGCG	-0.0783
GTGATCAA	-0.113
CTAATGAG	-0.0357
ATGTTACC	0.0884
ATAGCACG	-0.0226
CCGCACGA	0.106
CTGTAGGA	-0.0162

Sequence	PBM E-score
AAGCACTT	-0.125
AGAGCCAC	-0.096
AAGAGGCG	0.0152
GCCTAGCC	-0.318
CGTGACCA	-0.21
AGCTCATA	-0.187
ACACAACT	0.0288
TTCGTAAA	0.456
AGGGAGCA	-0.183
AGCATTGA	-0.0648
GCGAGCCC	0.179
AATAGTCG	0.177
CCTAGATA	-0.0259
CGGTAACA	0.0257
GCCCGTGA	-0.115
CACATCGA	0.083
AAGAACAT	-0.0641
CAAAGTTG	-0.214
ATATTCGC	0.17
AAGGGGAT	-0.214
GTCCGAGA	0.253
AACTCACT	-0.267
TCCCCGCA	0.0495
CGGCTAGC	-0.0355
GGCCAAAC	0.107

Sequence	PBM E-score
AGTCTTGG	-0.126
CATTGGCA	-0.215
TCATGCAA	-0.0223
CTGAATAC	0.0937
AAATCTCC	-0.239
CAGAAAAG	0.0159
AAGTCGAT	0.0277
CAGATAGG	-0.0702
AGCGATAC	0.197
GAAATCGC	0.0812
ACGCGCAG	-0.109
AACTGTTC	-0.177
CCCCCTAG	-0.406
AATCCAGC	-0.174
CAATTCGG	0.0789
CTGGAGAA	-0.17
ACTCATCT	-0.16
GATACCCC	-0.104
AGCCCCAA	-0.236
